Experimental data as given in patent US20250243267A1, “COMBINATION OF A GREMLIN-1 ANTAGONIST WITH A CYTIDINE ANALOGUE OR DEOXYCYTIDINE ANALOGUE” (UCB BIOPHARMA SRL, priority 2022, published 2025).
Where “and” joins values, the source holds several entries; their conditions need not be identical. Equal entries are not always repeated.

Test system: LSL-KrasG12D/+; LSL-Trp53R172H/+; Pdx1-Cre (KPC) mouse model of pancreatic cancer
Assay: Survival of KPC mice with pancreatic cancer from start of treatment (Kaplan-Meier, Log-Rank)
Type: in vivo
Excerpt: • Test antibody and drug Anti-gremlin-1 antibody-Ab7326 mlgG1-APP.4405.IgG.mFc-Lot number-PB 4682 • Vehicle-Phosphate Buffered Saline pH 7.4 (provided by the Beatson Institute) • Gemcitabine-(provided by the Beatson Institute, purchased from LC Labs, Woburn, MA, USA) in Phosphate Buffered Saline pH 7.4. • Genetically Modified Mice • LSL-Kras^G12D/+; Trp53^R172H/+; Pdx1-Cre (KPC) mice have been described previously (Hingorani et al., 2005). Mice were generated by crossing mice bearing Pdx1-Cre, and conditional LSL-KrasG12D or LSL-Trp53R172H alleles (strains 01XJ6 and 01XL9, Mouse Models of Human Cancer Consortium [MMHCC], NCI-Frederick, Frederick, MD, USA). Mice on a mixed background were bred in-house at the CRUK Beatson Institute and maintained in conventional caging with environmental enrichment, access to standard chow and water ad libitum. Genotyping was performed by Transnetyx (Cordoba, TN, USA). Mice of both sexes were recruited onto study. All animal experiments were performed under a UK Home Office licence and approved by the University of Glasgow Animal Welfare and Ethical Review Board.
Mice were monitored 3 times weekly until a diagnosis of pancreatic cancer was made by abdominal palpation and confirmed by ultrasound imaging. […] Mice were monitored daily and sacrificed when reaching ethical endpoint (symptoms include abdominal distension, cachexia, intermittent hunching or reduced mobility, piloerection, mild diarrhoea, anaemia). […]
Next, the efficacy of gremlin-1 inhibition as a potential therapeutic approach for pancreatic cancer was tested in the KPC model. […] A cohort of KPC mice was established and mice were monitored until they developed pancreatic cancer detectable by palpation.
Mice were monitored at least weekly by palpation until pancreatic tumours were detectable. […] Mice remained on study and were closely monitored until ethical endpoint was reached, at which time they were sacrificed as per institutional guidelines.

B1: Ab7326 mlgG1: Anti-gremlin-1 antibody Ab7326 in mouse IgG1 format, Lot number PB 4682; allosteric inhibitory antibody (antibody)
heavy: QVQLVESGAEVKKPGATVKISCKVSGYTFTDYYMHWVQQAPGKGLEWMGLVDPEDGETIYAEKFQGRVTITADTSTDTAYMELSSLRSEDTAVYYCATDARGSGSYYPNHFDYWGQGTLVTVSSASTKGPSVFPLAPSSKSTSGGTAALGCLVKDYFPEPVTVSWNSGALTSGVHTFPAVLQSSGLYSLSSVVTVPSSSLGTQTYICNVNHKPSNTKVDKKVEPKSC
light: DIVMTQSPDSLAVSLGERATINCKSSQSVLYSSNNKNYLAWYQQKPGQPPKLLIYWASTRESGVPDRFSGSGSGTDFTLTINSLQAEDVAVYFCQQYYDTPTFGQGTRLEIKRTVAAPSVFIFPPSDEQLKSGTASVVCLLNNFYPREAKVQWKVDNALQSGNSQESVTEQDSKDSTYSLSSTLTLSKADYEKHKVYACEVTHQGLSSPVTKSFNRGEC
KPC mice, survival from start of treatment, dosing twice weekly (Ab7326 mlgG1 30 mg/kg s.c.; gemcitabine 100 mg/kg i.p.)
  Median (days) survival: 26 days
As a single agent and in combination with gemcitabine
  safety in KPC mice: can be given safely
One value per KPC mouse, * denotes smaller than average tumour at start of treatment
  Days on Rx (individual mice): 24 days and 13 days and 9 days and 26 days and 85 days and 12 days and 33 days
